Measured values as given in the supplement of paper PMC8728848.
This is one part of the list.

How the values were obtained:
Assay in all cases: glycan array binding signal (z-score within array); higher = stronger binding
Settings in all cases: glycan notation: IUPAC condensed, linker removed
[1] = target: Fuc(a1-2)[GalNAc(b1-3)]Gal
Outline: (§1)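 The binding signal is a Z-score computed within each array and averaged over linkers. Arrays of the same protein sequence at different concentrations or buffers were also averaged together. Data originate from 3228 arrays in the Consortium for Functional Glycomics database, kept only where the protein sequence was available.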

Fuc(a1-3)GlcNAc = target: Fuc(a1-3)GlcNAc
Outline: as §1

[2] = target: Fuc(a1-3)[Gal(b1-4)]Glc6S
Outline: as §1

[3] = target: Fuc(a1-3)[Gal(b1-4)]GlcNAc
Outline: as §1

[4] = target: Fuc(a1-3)[Gal(b1-4)]GlcNAc(b1-2)Man
Outline: as §1

[5] = target: Fuc(a1-3)[Gal(b1-4)]GlcNAc(b1-2)Man(a1-3)[Fuc(a1-3)[Gal(b1-4)]GlcNAc(b1-2)Man(a1-6)]Man(b1-4)GlcNAc(b1-4)GlcNAc
Outline: as §1

[6] = target: Fuc(a1-3)[Gal(b1-4)]GlcNAc(b1-2)Man(a1-3)[Fuc(a1-3)[Gal(b1-4)]GlcNAc(b1-2)Man(a1-6)]Man(b1-4)GlcNAc(b1-4)[Fuc(a1-6)]GlcNAc
Outline: as §1

[7] = target: Fuc(a1-3)[Gal(b1-4)]GlcNAc(b1-3)Gal(b1-3)[Fuc(a1-4)]GlcNAc
Outline: as §1

[8] = target: Fuc(a1-3)[Gal(b1-4)]GlcNAc(b1-3)Gal(b1-4)[Fuc(a1-3)]GlcNAc
Outline: as §1

[9] = target: Fuc(a1-3)[Gal(b1-4)]GlcNAc(b1-3)Gal(b1-4)[Fuc(a1-3)]GlcNAc(b1-3)Gal(b1-4)[Fuc(a1-3)]GlcNAc
Outline: as §1

[10] = target: Fuc(a1-3)[Gal(b1-4)]GlcNAc(b1-3)GalNAc
Outline: as §1

[11] = target: Fuc(a1-3)[Gal(b1-4)]GlcNAc(b1-6)GalNAc
Outline: as §1

[12] = target: Fuc(a1-3)[Gal(b1-4)]GlcNAc(b1-6)[Gal(b1-3)GlcNAc(b1-3)]Gal(b1-4)Glc
Outline: as §1

[13] = target: Fuc(a1-3)[Gal(b1-4)]GlcNAc6S
Outline: as §1

[14] = target: Fuc(a1-3)[Gal3S(b1-4)]Glc
Outline: as §1

[15] = target: Fuc(a1-3)[Gal3S(b1-4)]GlcNAc
Outline: as §1

[16] = target: Fuc(a1-3)[Gal3S(b1-4)]GlcNAc6S
Outline: as §1

[17] = target: Fuc(a1-3)[GalNAc(b1-4)]GlcNAc
Outline: as §1

[18] = target: Fuc(a1-3)[GalNAc(b1-4)]GlcNAc6S
Outline: as §1

Fuc(a1-4)GlcNAc = target: Fuc(a1-4)GlcNAc
Outline: as §1

Fuc(b1-3)GlcNAc = target: Fuc(b1-3)GlcNAc
Outline: as §1

Gal(a1-2)Gal = target: Gal(a1-2)Gal
Outline: as §1

Gal(a1-3)Gal = target: Gal(a1-3)Gal
Outline: as §1

Gal(a1-3)Gal(b1-3)GlcNAc = target: Gal(a1-3)Gal(b1-3)GlcNAc
Outline: as §1

[19] = target: Gal(a1-3)Gal(b1-3)GlcNAc(b1-2)Man
Outline: as §1

[20] = target: Gal(a1-3)Gal(b1-3)GlcNAc(b1-2)Man(a1-3)[Gal(a1-3)Gal(b1-3)GlcNAc(b1-2)Man(a1-6)]Man(b1-4)GlcNAc(b1-4)GlcNAc
Outline: as §1

[21] = target: Gal(a1-3)Gal(b1-3)GlcNAc(b1-3)GalNAc
Outline: as §1

[22] = target: Gal(a1-3)Gal(b1-3)GlcNAc(b1-6)GalNAc
Outline: as §1

[23] = target: Gal(a1-3)Gal(b1-3)[Fuc(a1-4)]GlcNAc(b1-2)Man(a1-3)[Gal(a1-3)Gal(b1-3)[Fuc(a1-4)]GlcNAc(b1-2)Man(a1-6)]Man(b1-4)GlcNAc(b1-4)GlcNAc
Outline: as §1

Gal(a1-3)Gal(b1-4)Glc = target: Gal(a1-3)Gal(b1-4)Glc
Outline: as §1

B1: a L Fucosidase (Streptosporangium roseum), D2B1P1_STRRD (protein)
chain: MRRKLLLVPAVGLLVIGSIFATQPVASADTPPVYEPTVESLNSHPVPQWFNDDKFGIFIHWGAYSVPAWGPRGSYAEWYGNYMNAGGSATNAHHKATYGQDFNYDAFLQQWKAEKFDPADWVKLFKDAGAKYFVLTSKHHEGMALWDSKSSGRDSVDLGPGRDLAKELFDAARKDEAKLKAGFYYSLYEWYNPAYTGRPATNPYTGAEIPYTGAPGGGDYVKDYMLPQMRELIDGYDPDIIWCDGQWEKPASYWNTAGVIADYYNKALNSGKEVAVANRCKIQSGNLDSPELDFQTPEYTVKPDIDPVKWESSRGIAHSYGYNQNEPEEDHLTSDQLVDSLVDIVSKNGNLLLDIGPKADGTIPEIQRQRLLDIGAWLKANGEAIYGTTYWNRAEEKGGPDDVRYTAKDATLYATALKWPGEQLTLGADLPVDHSTRITMLGSGARLSWSRDEQGRVVVNTPQEAGKHAYVFKIETPGVRSLLRTSSSLAKEIAPGRTISGELTVTNPGKRHTPATKLSLTVPQGWTATLGAPRVRPLGPGESVKVPISVSAPEGVAPAPYTLGLYQRTGRMGTTTALPLTVNRPNLSLGKPATQKSTGYDAPASRAVDGNTGGDWSAGSTTHTAEPEKQAWWQVDLGASARLDSVDVWNRLDCCADRLKDFWVMASDQPFTTDDLDQARTAPGVTAVHVGEQAGSPSKVKLPEGTRGRYVRIQLASPSNPLSLAEVQVRGSMARPNLSLGKPATQKSTGYDAPASRAVDGNTGGDWSAGSTTHTAEPEKQAWWQVDLGASARLDSVDVWNRLDCCADRLKDFWVMASDQPFTTDDLDQARTAPGVTAVHVGEQAGSPSKVKLPEGTRGRYVRIQLASPSNPLSLAEVQVRLEHHHHHHS
Question: Which “glycan array binding signal (z-score)” value [1] does the source give for B1 here?
Answer: -0.567

Question: What about the “glycan array binding signal (z-score)” value (Fuc(a1-3)GlcNAc) of the same binder?
Answer: 0.881

Question: What about the “glycan array binding signal (z-score)” value [2] of the same binder?
Answer: -0.058

Question: What about the “glycan array binding signal (z-score)” value [3] of the same binder?
Answer: 0.166

Question: What about the “glycan array binding signal (z-score)” value [4] of the same binder?
Answer: -0.168

Question: And the “glycan array binding signal (z-score)” value [5]?
Answer: -0.381

Question: What about the “glycan array binding signal (z-score)” value [6] of the same binder?
Answer: -0.455

Question: What about the “glycan array binding signal (z-score)” value [7] of the same binder?
Answer: -0.253

Question: And the “glycan array binding signal (z-score)” value [8]?
Answer: 0.471

Question: And the “glycan array binding signal (z-score)” value [9]?
Answer: 0.432

Question: What about the “glycan array binding signal (z-score)” value [10] of the same binder?
Answer: 1.22

Question: What about the “glycan array binding signal (z-score)” value [11] of the same binder?
Answer: -0.081

Question: What about the “glycan array binding signal (z-score)” value [12] of the same binder?
Answer: -0.388

Question: And the “glycan array binding signal (z-score)” value [13]?
Answer: -0.332

Question: And the “glycan array binding signal (z-score)” value [14]?
Answer: -0.421

Question: What about the “glycan array binding signal (z-score)” value [15] of the same binder?
Answer: 0.551

Question: What about the “glycan array binding signal (z-score)” value [16] of the same binder?
Answer: -0.267

Question: What about the “glycan array binding signal (z-score)” value [17] of the same binder?
Answer: -0.325

Question: And the “glycan array binding signal (z-score)” value [18]?
Answer: -0.433

Question: What about the “glycan array binding signal (z-score)” value (Fuc(a1-4)GlcNAc) of the same binder?
Answer: 2.99

Question: What about the “glycan array binding signal (z-score)” value (Fuc(b1-3)GlcNAc) of the same binder?
Answer: 0.943

Question: What about the “glycan array binding signal (z-score)” value (Gal(a1-2)Gal) of the same binder?
Answer: -0.337

Question: What about the “glycan array binding signal (z-score)” value (Gal(a1-3)Gal) of the same binder?
Answer: -0.373

Question: And the “glycan array binding signal (z-score)” value (Gal(a1-3)Gal(b1-3)GlcNAc)?
Answer: -0.369

Question: What about the “glycan array binding signal (z-score)” value [19] of the same binder?
Answer: -0.38

Question: And the “glycan array binding signal (z-score)” value [20]?
Answer: -0.102

Question: And the “glycan array binding signal (z-score)” value [21]?
Answer: 1.41

Question: And the “glycan array binding signal (z-score)” value [22]?
Answer: -0.4

Question: What about the “glycan array binding signal (z-score)” value [23] of the same binder?
Answer: -0.05

Question: And the “glycan array binding signal (z-score)” value (Gal(a1-3)Gal(b1-4)Glc)?
Answer: -0.409
